Results taken from PubChem BioAssay AID1346428 (National Center for Advancing Translational Sciences (NCATS), 2018).
Among all 48,000 compounds or so, about 1,200 (2.5%) were called active. About 2% were inconclusive and are not listed.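 Rule for the calls: active = activation of at least 60% and not above a set upper limit (about 1 call in 100 departs from these limits); inconclusive = activation of 40% to 60%, or above that upper limit; inactive = activation under 40%.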 Some of the results follow.

biological target: Probable G-protein coupled receptor 32 (Homo sapiens) (UniProt O75388); assay: qHTS for Agonists of Human Resolvin D1 Receptor DRV1; conditions: CHO-K1 GPR32 beta-arrestin PathHunter luminescence, 90 min; at 76.9 µM; active compounds read high; zero percent set by DMSO-only wells; note: 0% is about no effect
Method in brief: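 GPR32 activation in stably transfected CHO-K1 cells, detected as beta-arrestin recruitment by enzyme-fragment complementation. Compound exposure: 90 min, 37 °C.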

Chain of UniProt O75388 (O75388 whole entry, looked up, the tested form may be a part): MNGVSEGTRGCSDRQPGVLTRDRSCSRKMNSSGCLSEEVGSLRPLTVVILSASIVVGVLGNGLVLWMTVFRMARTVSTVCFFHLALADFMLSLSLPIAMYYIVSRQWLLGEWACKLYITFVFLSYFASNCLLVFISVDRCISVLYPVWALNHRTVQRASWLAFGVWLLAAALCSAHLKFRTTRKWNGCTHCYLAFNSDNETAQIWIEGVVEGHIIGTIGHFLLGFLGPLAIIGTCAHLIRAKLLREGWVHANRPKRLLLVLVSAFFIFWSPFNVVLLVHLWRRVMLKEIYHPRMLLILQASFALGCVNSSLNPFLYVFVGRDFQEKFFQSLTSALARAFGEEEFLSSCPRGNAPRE

SMILES | activation
O=C(CCCn1c(=O)c2ccccc2n(CC(=O)Nc2cccc(C(F)(F)F)c2)c1=O)NCc1ccc2c(c1)OCO2 | inactive: -2.24%
CCCN(CCC)S(=O)(=O)c1ccc2c(c1)N(CC(=O)NCc1ccc(F)cc1Cl)C(=O)CS2 | inactive: -31.7%
COc1ccc(-n2nc(C(=O)N3CCCC(C)C3)c3c4ccccc4n(C)c3c2=O)cc1 (stereo not drawn) | inactive: -0.167%
O=C(c1ccccc1)n1nc(-c2ccccc2)nc1NCc1ccc(F)cc1 | inactive: -12%
CCc1ccc(C(=O)c2cn(CC(=O)NC3CCCCC3)c3nc(C)ccc3c2=O)cc1 | inactive: 27.5%
O=C(Nc1ccc(F)c(F)c1)c1cc(S(=O)(=O)NC2CCCCCC2)ccc1F | inactive: -10.3%
CCOC(=O)c1cc2c(=O)n3ccccc3nc2n(C(C)C)c1=NC(=O)c1cc2ccccc2o1 | inactive: 31.9%
COc1ccc(CNC(=O)CN2C(=O)COc3ccc(S(=O)(=O)Nc4ccccc4)cc32)cc1 | inactive: 4.83%
CCOc1ccc(N2CC(NC(=O)/C=C\c3ccc4c(c3)OCO4)CC2=O)cc1 (stereo not drawn) | inactive: -7.14%
CNC(=O)c1c(NC(=O)c2ccc(S(=O)(=O)N3CCCCC3)cc2)sc2c1CCC2 | inactive: -37.3%
CCOC(=O)c1sc2ccccc2c1S(=O)(=O)Nc1ccc(CC)cc1 | inactive: -31.4%
COc1ccc(-c2cc(C(F)(F)F)nc(S(C)(=O)=O)n2)cc1 | active: 109%
CC(C)(C)C(=O)Nc1ccc2nc(SCC(=O)N3CCOCC3)sc2c1 | inactive: -2.15%
CSc1nc2c(c(=O)[nH]1)C(c1cccc(F)c1F)CC(=O)N2 (stereo not drawn) | inactive: -13.2%
O=S(=O)(Nc1cc(F)ccc1F)c1ccc2[nH]c3c(c2c1)CCCC3 | inactive: 24.6%
COc1ccc(NS(=O)(=O)c2cc(Br)cc3c2N(C(=O)C2CC2)CC3)cc1OC | inactive: 16.7%
CC(C)c1ccc(NC(=O)CS(=O)(=O)c2cccc3nsnc23)cc1 | inactive: -2.51%
COc1cccc(CNC(=O)c2ccc3c(c2)c(C)c(C)n3Cc2ccccc2)c1OC | inactive: -15.3%
CCCCN(CCCC)CCNC(=O)Cn1nc(C)n2c(cc3sccc32)c1=O | inactive: -0.832%
Cn1cc(C2=C(c3ccc(Cl)cc3Cl)C(=O)NC2=O)c2ccccc21 | inactive: -34.8%
COc1ccc(-c2cc(C(F)(F)F)nc(SCCC(=O)Nc3ccccc3F)n2)cc1 | inactive: -2.21%

SMILES | activation
Cc1ccc2occ(CC(=O)N(Cc3ccc(Cl)cc3)C3CCS(=O)(=O)C3)c2c1 (stereo not drawn) | inactive: -8.8%
O=c1c2oc3ccccc3c2n(Cc2cccc(Cl)c2)c(=O)n1Cc1ccco1 | inactive: -4.65%
CCOC(=O)c1ccccc1NC(=O)CSc1ccc(-c2cccs2)nn1 | inactive: -19.8%
Cc1cc(-c2nc3ncccc3o2)ccc1NC(=O)COc1ccccc1C | inactive: 3.06%
O=C(Cc1ccccc1)NC1CC(=O)N(c2ccccc2)C1 (stereo not drawn) | inactive: -9.06%
Cc1cccc(OCC(=O)Nc2nc3c(s2)CC(C(C)(C)C)CC3)c1C (stereo not drawn) | inactive: -0.447%
COc1ccccc1N1CCN(C(=O)CN2C(=O)COc3ccc(S(=O)(=O)N4CCCCCC4)cc32)CC1 | inactive: -1.21%
CCc1ccc(Nc2nn(-c3ccc(OC(F)(F)F)cc3)nc2C(C)=O)cc1 | inactive: 3.69%
Cc1ccc(-c2noc(CNS(=O)(=O)c3ccc(F)cc3)n2)cc1 | inactive: -11.2%
Cn1cc(S(=O)(=O)c2cccc(Cl)c2)c(=O)c2cc(F)c(N3CCN(c4ccc(F)cc4)CC3)cc21 | inactive: -4.26%
Cc1nnc(N2CCN(C(=O)NC(C)C)CC2)c2nn(-c3ccccc3)c(C)c12 | inactive: 8.51%
Cc1c(NC(=O)c2cc(-c3ccc(F)cc3)on2)c(=O)n(-c2ccccc2)n1C | inactive: 0.945%
CCN(CC)c1ccc(NC(=O)c2cnc3c(-c4ccccc4)c(C)nn3c2C)c(C)c1 | inactive: -13%
COc1ccc(S(=O)(=O)c2cn(CC(=O)Nc3cc(C)ccc3C)c3ccccc3c2=O)cc1 | inactive: 10.9%
COc1ccc(S(=O)(=O)n2nc(-c3ccco3)nc2NCc2ccc(N(C)C)cc2)cc1 | inactive: -7.56%
Cc1ccc(CNC(=O)N2CCC(CN3CCC(C)CC3)CC2)cc1 | inactive: 3.23%
CCN1CCN(Cc2nc3cc(NC(=O)c4cc(OC)c(OC)c(OC)c4)ccc3n2CC)CC1 | inactive: -0.243%
CCC1CN(C(=O)NCc2ccc(C)cc2)c2cc(Cl)ccc2O1 (stereo not drawn) | inactive: -20.5%
COc1ccc(NC(=O)Cn2cnc3sc(C)c(S(=O)(=O)N4CCN(c5ccccc5OC)CC4)c3c2=O)cc1OC | inactive: 6.52%
Cc1ccc2scc(N3CCc4ccccc4C3)c(=O)c2c1 | inactive: -43.2%
CCc1ccccc1NC(c1nnc(-c2cccc(F)c2)o1)c1ccc(F)cc1Cl (stereo not drawn) | inactive: -28.6%

SMILES | activation
CC(C)c1ccc(NC(=O)CN2C(=O)COc3ccc(S(=O)(=O)N4CCCCC4)cc32)cc1 | inactive: -21.4%
Cc1ccc(C)c(N2CCN(C(=O)Cn3ncc4c(=O)oc5ccccc5c43)CC2)c1 | inactive: 3.02%
COc1cc(OC)cc(-c2nc3nc(C)c(CCC(=O)Nc4ccc(C)c(C)c4)c(C)n3n2)c1 | inactive: -2.8%
COc1cccc(C(=O)N2CCN(CCc3ccncc3)CC2)c1 | inactive: -9.22%
CN(C)c1ccc(CNC(=O)c2cccc(NC(=O)N3CCSc4ncccc43)c2)cc1 | inactive: 3.44%
Cc1cccc(C(=O)NCC(=O)OCc2cc(=O)n3nc(CC(C)C)sc3n2)c1 | inactive: -13.7%
CCC(C(=O)NCc1ccco1)n1nc(C)c2c(C)n(-c3ccc(C)cc3)nc2c1=O (stereo not drawn) | inactive: 16.5%
Cn1c(=O)c2c(-c3cccc(Br)c3)n(C(C)(C)CO)cc2n(C)c1=O | inactive: 19.7%
Fc1ccc(Nc2ncnc3onc(-c4cccc(Cl)c4)c23)c(F)c1 | inactive: 8.5%
COc1cccc2c1cc1c(=O)n(CC(=O)N3CCN(c4ccc(Cl)cc4)CC3)nc(C)n12 | inactive: -1.44%
Cc1ccc(S(=O)(=O)NC2(C(F)(F)F)NC(=O)N(CCc3ccccc3)C2=O)cc1 (stereo not drawn) | inactive: 20.8%
COc1ccccc1NC(=O)Cn1c(SCC(=O)N(C)c2ccccc2)nc2ccccc21 | inactive: -11.8%
Cc1cc2nc(-c3ccc(OCc4ccccc4Cl)cc3)cc(C(F)(F)F)n2n1 | inactive: 5.15%
O=C1N(Cc2ccccc2)c2ccc(Cl)cc2C1(O)c1c[nH]c2ccccc12 (stereo not drawn) | active: 116%
CCOc1ccccc1NC(=O)CSc1nnc2[nH]c(=O)cc(-c3ccccc3)n12 | inactive: -2.08%
Cc1cc(C)cc(NC(=O)Cn2cc(S(=O)(=O)NC(C)(C)C)c(S(=O)(=O)NC(C)(C)C)c2)c1 | inactive: -6.32%
O=C(NCCn1cc(SCc2ccccc2Cl)c2ccccc21)c1cccs1 | inactive: 31.8%
O=C(Nc1ccccc1Cl)C1CCN(c2nc3ccccc3nc2C(F)(F)F)CC1 | inactive: -19.9%
COc1cc(OC)c(/C=C2/C(=O)Nc3ccccc32)c(OC)c1 | inactive: 2.24%
COc1ccc(-c2nc3c4ccccc4n(CC(=O)N4CCN(c5ccccc5OC)CC4)c(=O)n3n2)cc1 | inactive: -7.81%
CCN(CC)CCCNC(=O)CN1C(=O)CCn2nc(-c3cn(C)c4ccccc34)cc21 | inactive: -8.41%

SMILES | activation
COc1ccc(-c2nc(CSCC(=O)N3CCN(c4cccc(C)c4C)CC3)c(C)o2)cc1OC | inactive: 4.62%
COc1cccc(-n2c(=O)c3c4c(sc3n(Cc3ccc(C)cc3)c2=O)CCCC4)c1 | inactive: -6.35%
Cc1ccc2nc(-c3ccccc3F)c(Nc3ccc(Cl)cc3)n2c1 | inactive: -13.3%
COc1ccc(CCNC(=O)c2ccc3c(c2)c(C)c(C)n3Cc2ccc(F)cc2)c(OC)c1OC | inactive: -13.8%
Cc1nnc(NC(=O)CSCc2cc(=O)c3cc(Cl)ccc3[nH]2)s1 | inactive: -59.2%
O=S(=O)(NCc1ccc(F)cc1)c1ccc(-c2cnc(C3CC3)o2)cc1 | inactive: -19.9%
COc1cccc(C(=O)Nc2ccccc2C(=O)OCc2cc(=O)n3nc(C4CC4)sc3n2)c1 | inactive: -6.24%
Cc1c(C(=O)N2CCCC2)oc2c1-c1nn(CC(=O)NCCCOC(C)C)cc1CC2 | inactive: 12.4%
Cc1ccc(C(=O)c2cn(CC(=O)NC3CCCCC3)c3nc(C)ccc3c2=O)cc1 | inactive: 9.3%
COc1ccccc1-n1ncc2c(=O)[nH]c(SCC(=O)Nc3ccc(Cl)cc3)nc21 | inactive: -4.67%
Cc1ccc(CNC(=O)c2cccn2-c2nnc(N3CCCCC3)s2)cc1 | inactive: -20.5%
COc1cc(-c2nc(Cn3nnc(C(=O)Nc4ccccc4)c3C)c(C)o2)cc(OC)c1OC | inactive: 8.5%
O=C(NC1CC(=O)N(c2cccc(F)c2)C1)C1CCCC1 (stereo not drawn) | inactive: -5.91%
Cc1c(C)c2c(cc(C)c3c(-c4ccccc4)coc32)oc1=O | inactive: 4.54%
O=C(c1cccn1-c1nnc(N2CCCC2)s1)N1CCN(c2ccccc2)CC1 | inactive: -5.37%
CN(C)CCN(Cc1ccccc1)S(=O)(=O)c1ccc2[nH]c(=O)ccc2c1 | inactive: 3.02%
O=C(Nc1cc2c(cc1C(=O)c1ccccc1)OCCO2)c1ccc(Br)cc1 | inactive: -6.98%
Cc1ccccc1-c1nc(SCC(=O)NCc2ccco2)c2c(=O)n(C)c(=O)n(C)c2n1 | inactive: 30.2%
CCOC(=O)COc1ccc2c(C)c(CCN(CC)CC)c(=O)oc2c1Cl | inactive: -3.41%
COc1ccc2oc(=O)c(-c3csc(-c4ccc(Br)cc4)n3)cc2c1 | inactive: 7.82%
